According to publication PMC6919601, “Identification of Plasmodium dipeptidyl aminopeptidase allosteric inhibitors by high throughput screening” (PLoS ONE, 2019):
Screen size: about 110,000 compounds; about 230 (0.21%) showed an effect of 50% or more. This is one part of the list.

Each molecule was assayed against DPAP1 (Plasmodium falciparum, UniProt Q8IIJ9) (assay: primary screen, percent inhibition; read by cleavage of a fluorogenic dipeptide substrate; higher = more effect of the substance).
Set-up: species or system P. falciparum D10 trophozoite lysates; single well
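Note: 30 min substrate incubation versus DMSO and 10 µM JCP410 controls.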

Sequence of DPAP1 (Q8IIJ9 whole entry, looked up): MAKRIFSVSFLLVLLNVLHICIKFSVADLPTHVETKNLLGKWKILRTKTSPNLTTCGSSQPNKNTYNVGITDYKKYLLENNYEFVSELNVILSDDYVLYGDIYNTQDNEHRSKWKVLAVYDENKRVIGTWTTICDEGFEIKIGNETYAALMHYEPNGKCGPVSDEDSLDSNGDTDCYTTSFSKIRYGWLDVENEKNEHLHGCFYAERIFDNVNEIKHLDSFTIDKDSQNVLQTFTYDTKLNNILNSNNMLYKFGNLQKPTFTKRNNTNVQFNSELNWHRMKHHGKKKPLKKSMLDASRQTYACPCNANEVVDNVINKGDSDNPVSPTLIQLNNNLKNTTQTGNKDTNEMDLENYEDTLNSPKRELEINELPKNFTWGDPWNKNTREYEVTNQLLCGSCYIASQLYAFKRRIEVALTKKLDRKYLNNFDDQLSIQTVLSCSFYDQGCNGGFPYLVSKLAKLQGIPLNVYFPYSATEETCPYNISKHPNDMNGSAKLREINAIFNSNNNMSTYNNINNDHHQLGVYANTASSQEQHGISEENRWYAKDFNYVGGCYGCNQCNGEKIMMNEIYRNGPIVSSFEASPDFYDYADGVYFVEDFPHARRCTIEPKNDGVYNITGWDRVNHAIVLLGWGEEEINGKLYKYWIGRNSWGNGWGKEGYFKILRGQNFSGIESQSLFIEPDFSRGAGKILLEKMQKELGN

| Compound | % Inhibition @ 10 uM [%] |
| --- | --- |
| Fc1c(F)c(F)c(CSc2nc3ccccc3[nH]2)c(F)c1F | 1.33 |
| CN1C(=O)C(=CNc2cnc3ccccc3c2)C(=O)N(C)C1=O | -4.75 |
| COc1cc(C=C(C#N)C#N)cc(OC)c1O | 2.5 |
| CCN(CC)CC#CC(O)(CC)CC | -5.11 |
| O=c1oc2c3c(ccc2c2ccccc12)OCN(Cc1ccco1)C3 | -6.29 |
| CC1CCc2c(C(=O)NC(C)C)csc2C1 (stereo not drawn) | 0.277 |
| CC(C)Oc1ccc(C(=O)Nc2cccc3cccnc23)cc1 | -0.469 |
| COc1ccc(-c2csc3ncn(CC(=O)Nc4cc(Cl)ccc4Cl)c(=O)c23)cc1OC | 4.39 |
| CCC/N=c1\c(NC(=O)c2ccccc2OCC)c(O)oc2ccccc12 | -1.33 |
| CCN1CC2=C(OC(N)=C(C#N)C2c2ccc(F)cc2)/C(=C/c2ccc(F)cc2)C1 (stereo not drawn) | 0.983 |
| N#CCNC(=O)C(Cc1c(F)cccc1F)NC(=O)c1ccc(-c2ccccc2Cl)cc1 (stereo not drawn) | -1.82 |
| COc1ccc(C2C(C(=O)Nc3cccnc3)=C(C)Nc3nnnn32)cc1 (stereo not drawn) | 1.97 |
| CC1(C)Cc2nnc3c4c(nnc(c24)C1)CC(C)(C)C3 | 0.415 |
| CC(C)(CNC(=O)C1CC(=O)N(c2ccccc2)C1)CNC(=O)C1CC(=O)N(c2ccccc2)C1 (stereo not drawn) | 3.29 |
| COc1cc(C(=O)NCC2OCCc3ccccc32)cc(OC)c1OC (stereo not drawn) | -5.01 |
| O=C(CSc1nnc(CNC(=O)c2c(F)cccc2Cl)o1)NC1CCCCC1 | 1.85 |
| CCOC(=O)c1cnn(-c2ccccc2)c1-c1ccncc1 | -1.03 |
| CCOC(=O)c1c(C)c(C(=O)NC(C)(C)C)c(C)n1CC | -7.18 |
| NC(=O)Cn1cnc2c(nnn2Cc2ccc(Cl)cc2)c1=O | -5.79 |
| C=CCn1c(SCCC)nc(O)cc1=O | -5.84 |
| Cc1nn(C)c(C)c1CN(C)C(=O)c1cc2nc(-c3ccco3)cc(C(F)(F)F)n2n1 | -3.37 |
| CCN(C(=O)COc1ccc(Cl)cc1C)c1ccccc1 | -6.65 |
| CCCCNC(=O)c1ccc(CS(=O)Cc2ccccc2Cl)o1 (stereo not drawn) | 0.401 |
| O=Cc1cc2ccccc2nc1Cl | -0.053 |
| CS(=O)(=O)N(CC(=O)N1CCCCCC1)c1cccc(C(F)(F)F)c1 | -2.44 |
| CC(C)C[C@H](NC(=O)c1ccc(-c2ccc(C(=O)O)cc2Cl)cc1)C(=O)NCC#N | -1.82 |

| Compound | % Inhibition @ 10 uM [%] |
| --- | --- |
| Cc1cc2ccccc2n1-c1ccc(C(=O)NCCC(C)C)s1 | -4.14 |
| CN1CCN(C(=O)/C=C/c2ccc(Cl)cc2)CC1 | 5 |
| O=C1c2ccccc2NC(c2ccc(Cl)cc2)N1c1ccc(Cl)cc1 (stereo not drawn) | 0.177 |
| O=C1NC(=O)C2(C(=O)N1)C(c1cccc(Cl)c1)NC(=O)NC2c1cccc(Cl)c1 (stereo not drawn) | -3.48 |
| CCN(CC)CC(=O)c1ccc(-c2ccccc2)cc1 | 7.53 |
| NC(=O)c1ccccc1Nc1ccccc1Cl | -5.13 |
| Cc1c(C)n(C(=O)CSc2nc3ccccc3o2)c2ccccc12 | 4.18 |
| COC1=C(Cl)C(=O)N(c2c(C)cccc2C)C1=O | -2.87 |
| COc1ccc(-c2cc(C(=O)Nc3cc(C)on3)c3ccccc3n2)cc1 | -5.14 |
| O=C(Nc1ccc2c(c1)OCO2)c1ccc2c(c1)C(=O)N(C1CCCCC1)C2=O | -5.11 |
| CCOC(=O)c1c(-c2ccccc2)csc1NC(=O)c1nc(S(C)(=O)=O)ncc1Cl | -3.07 |
| CCOC(=O)c1cnc2c(C)c(Cl)ccc2c1N1CCOCC1 | -2.65 |
| O=C1CCCC2=C1C(c1cccc(Cl)c1)C1C(=O)c3ccccc3C1=N2 (stereo not drawn) | -1.81 |
| COc1ccc(/C=C2\SC(N3CCc4ccccc4C3)=NC2=O)cc1OC | 6.28 |
| CCc1ccccc1S(=O)(=O)Cc1ccc(C(=O)NC2CCC(C)CC2)o1 (stereo not drawn) | -3.09 |
| C=CCOc1ccccc1CNCc1cccnc1 | 2.08 |
| NC(=O)C1CCN(S(=O)(=O)Cc2ccccc2Cl)CC1 | -0.795 |
| Cc1nc2nncn2c(NCc2ccccc2)c1C | 0.895 |
| N#CC1(NC(=O)[C@H](Cc2c(F)cccc2F)NC(=O)c2ccc(-c3ccccc3Cl)c(Cl)c2)CCS(=O)(=O)CC1 | -0.207 |
| C=CCSc1nnc(-c2cccnc2)n1-c1ccccc1 | 0.401 |
| NC(=O)Cn1c(=O)n(Cc2ccco2)c(=O)c2sc3ccccc3c21 | -4.58 |
| Cc1cc(C)c(C#N)c(NC(=O)c2ccn(C)n2)c1 | -4.15 |
| O=C(O)c1ccc(COc2ccc3c(c2)CCC3)cc1 | 5.24 |
| COc1cc(C2C(C(C)=O)=C(C)Nc3ncnn32)ccc1OCCc1ccccc1 (stereo not drawn) | -4.41 |
| CC1CN(Cc2cccc(Cl)c2)CC(C)O1 (stereo not drawn) | -3.42 |
| Cc1nc2c(c(C)c1CCC(=O)NCc1ccc(CN3CCCCCC3)o1)c(=O)n(C)c(=O)n2C | 3.75 |

| Compound | % Inhibition @ 10 uM [%] |
| --- | --- |
| Cc1ccc(C(=O)Nc2cc(Cl)c(O)c(Cl)c2)cc1 | -1.17 |
| Cc1cc2ccccc2c(=O)n1CC(=O)NCC(=O)N1CCCC(C)C1 (stereo not drawn) | 0.457 |
| O=C1c2ccccc2C(=O)N1CCc1c[nH]c2ccc(O)cc12 | 4.73 |
| OCCN1CCN(CC/C=C2/c3ccccc3CSc3ccccc32)CC1 | -7.31 |
| O=C(CSc1nnc(O)nc1O)c1ccc(Cl)cc1 | -0.142 |
| O=C(c1ccc(Cl)cc1)n1c(=O)oc2ccccc21 | 0.76 |
| COc1ccc(C2CC(C(F)(F)F)n3ncc(C(=O)N(C)Cc4cn(C)nc4C)c3N2)cc1OC (stereo not drawn) | -2.37 |
| Cc1cccc(Oc2nc3ccccn3c(=O)c2/C=C(\C#N)C(=O)NCCc2ccccc2)c1C | 2 |
| CC(O)CON1C(=O)c2ccccc2C1=O (stereo not drawn) | 1.25 |
| Cc1cccc(-n2c(S)nnc2Cn2nc(C)cc2C)c1 | -2.9 |
| N#Cc1ccccc1NC(=O)c1ccc(F)cc1 | -1.38 |
| CC(NC(=O)COc1ccccc1C(C)(C)C)c1ccccc1 (stereo not drawn) | 14.5 |
| CCc1ccc(C(Nc2ccccn2)c2ccc3cccnc3c2O)cc1 (stereo not drawn) | -0.85 |
| COc1ccc(NS(=O)(=O)c2ccc(NC(=O)COc3ccc(C)cc3)cc2)cc1 | -1.51 |
| COc1ccc(S(=O)(=O)NCC2CCC(C(=O)NCCC(C)C)CC2)cc1 (stereo not drawn) | 5.99 |
| CCc1ccc(-c2csc3nc4ccccc4n23)cc1 | 1.01 |
| O=C(O)c1ccc(Nc2nc(-c3ccc(Cl)c(Cl)c3)cs2)cc1 | -0.0267 |
| CCO/C(O)=C(\C#N)c1ncc(Br)c(-c2ccccc2)n1 | 0.937 |
| COc1ccc(-c2c3c(=O)n(C)c(=O)n(C)c3cn2-c2ccccn2)cc1 | -4.11 |
| O=C(NC1CCCCCC1)C1CCC(Cn2c(=O)[nH]c3ccsc3c2=O)CC1 (stereo not drawn) | -3.27 |
| CCCCNc1cc(O)c(CC(=O)Nc2ccccc2)c2cc(OC)c(OC)cc12 | 25.7 |
| O=C(NCc1cccs1)c1cc(-c2ccc3c(c2)OCO3)on1 | -10.7 |
| Cc1ccc2c(C(=O)CN(C)C)c(C)[nH]c2c1 | -5.28 |
| COc1cc(CNc2ccc(N3CCN(C(C)=O)CC3)cc2)ccc1OCc1ccc(F)cc1 | 3.75 |
| Cc1nc2ccccn2c(=O)c1C(=O)NCc1ccccc1Br | 3.3 |
| Cc1n[nH]c(C)c1CCCCCCOc1ccccc1Cl | 6.49 |

| Compound | % Inhibition @ 10 uM [%] |
| --- | --- |
| CC1(c2ccccc2)OC(=O)C(=Cc2ccc(Br)cc2)C(=O)O1 (stereo not drawn) | 0.146 |
| CC(=O)c1ccc(S(=O)(=O)NCc2cn3ccccc3n2)cc1 | 0.00665 |
| COC(=O)c1cc2oc(C)cc2n1Cc1nc(-c2ccccc2C)oc1C | -9.3 |
| CC(C)C[C@H](NC(=O)/C=C/S(=O)(=O)c1ccccc1)C(=O)N[C@@H](Cc1ccccc1)C(=O)O | -6.46 |
| Cc1cc2[nH]c3ccccc3c2c(C)n1 | -1.06 |
| O=C1c2ccccc2-c2nnc(-c3ccc(O)cc3)cc21 | 9.74 |
| COc1ccc(-c2onc(C)c2C)cc1S(=O)(=O)NC(C)Cc1ccco1 (stereo not drawn) | -4.17 |
| Cc1nc(O)c2c3c(sc2n1)CCCC3 | -1.11 |
| CSc1ccc(CN2C[C@@H]3C[C@H](C2)c2cccc(=O)n2C3)cc1 | 3.82 |
| N=C1N(c2ccccc2)C(=O)/C(=C/C(=O)c2cccs2)N1c1ccccc1 | 2.22 |
| NC(=O)C1CCN(Cc2c(Cl)cccc2Cl)CC1 | 1.05 |
| COCCCN1C(=O)/C(=C\c2cc(Br)ccc2OC)C(C(=O)OC)=C1C | -4.93 |
| COc1ccc(-c2noc(CN(C(=O)c3cc(OC)cc(OC)c3)C(C)C)n2)cc1 | -4.94 |
| COC(=O)c1sccc1S(=O)(=O)N1CCc2ccccc2C1 | -4.75 |
| O=C(CCCc1nnc2n3nc(-c4ccccc4)nc3c3ccccc3n12)NCCCN1CCOCC1 | -4.69 |
| O=C(Nc1ccc(Cl)cc1C(=O)NCc1cccs1)c1ccc(Cl)cc1 | 0.528 |
| C=CCOc1ccccc1CNc1ccc(C(=O)O)cc1 | 0.795 |
| Cc1ccccc1C(=O)N1CCN(c2ccccn2)CC1 | -0.386 |
| Cc1ccc2c(c1)-c1onc(C(=O)NC3CCN(Cc4ccccc4)CC3)c1CO2 | -7.84 |
| COc1ccc2nc(Cl)c3nnnn3c2c1 | -0.999 |
| c1ccc2c(c1)CCN(Cc1ccoc1)C2 | 3.01 |
| Clc1cccc(OCCOCCN2CCNCC2)c1Cl | 6.15 |
| CC(C)Cn1cc(NC(=O)N2CCC3(CC2)OCCO3)c2ccccc2c1=O | -0.884 |
| COc1ccc(/C=c2\sc3nc(=O)c(Cc4ccccc4)nn3c2=O)c(OC)c1 | 0.222 |
